# Experimental data reported in article PMC4336329 (PLoS ONE, 2015).
# Among all 310,000 compounds or so, about 14,000 (4.5%) showed an effect of 50% or more. The effect is printed as a negative number. This is one part of the list.
# Target: human ether-à-go-go-related gene (hERG) potassium channel (human, UniProt Q12809)
# Test: primary screen, population patch clamp on CHO cells stably expressing hERG
# 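Also: peak tail current of the secondary pulse compared with the same well before compound.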
# human ether-à-go-go-related gene (hERG) potassium channel, sequence (Q12809 whole entry, looked up): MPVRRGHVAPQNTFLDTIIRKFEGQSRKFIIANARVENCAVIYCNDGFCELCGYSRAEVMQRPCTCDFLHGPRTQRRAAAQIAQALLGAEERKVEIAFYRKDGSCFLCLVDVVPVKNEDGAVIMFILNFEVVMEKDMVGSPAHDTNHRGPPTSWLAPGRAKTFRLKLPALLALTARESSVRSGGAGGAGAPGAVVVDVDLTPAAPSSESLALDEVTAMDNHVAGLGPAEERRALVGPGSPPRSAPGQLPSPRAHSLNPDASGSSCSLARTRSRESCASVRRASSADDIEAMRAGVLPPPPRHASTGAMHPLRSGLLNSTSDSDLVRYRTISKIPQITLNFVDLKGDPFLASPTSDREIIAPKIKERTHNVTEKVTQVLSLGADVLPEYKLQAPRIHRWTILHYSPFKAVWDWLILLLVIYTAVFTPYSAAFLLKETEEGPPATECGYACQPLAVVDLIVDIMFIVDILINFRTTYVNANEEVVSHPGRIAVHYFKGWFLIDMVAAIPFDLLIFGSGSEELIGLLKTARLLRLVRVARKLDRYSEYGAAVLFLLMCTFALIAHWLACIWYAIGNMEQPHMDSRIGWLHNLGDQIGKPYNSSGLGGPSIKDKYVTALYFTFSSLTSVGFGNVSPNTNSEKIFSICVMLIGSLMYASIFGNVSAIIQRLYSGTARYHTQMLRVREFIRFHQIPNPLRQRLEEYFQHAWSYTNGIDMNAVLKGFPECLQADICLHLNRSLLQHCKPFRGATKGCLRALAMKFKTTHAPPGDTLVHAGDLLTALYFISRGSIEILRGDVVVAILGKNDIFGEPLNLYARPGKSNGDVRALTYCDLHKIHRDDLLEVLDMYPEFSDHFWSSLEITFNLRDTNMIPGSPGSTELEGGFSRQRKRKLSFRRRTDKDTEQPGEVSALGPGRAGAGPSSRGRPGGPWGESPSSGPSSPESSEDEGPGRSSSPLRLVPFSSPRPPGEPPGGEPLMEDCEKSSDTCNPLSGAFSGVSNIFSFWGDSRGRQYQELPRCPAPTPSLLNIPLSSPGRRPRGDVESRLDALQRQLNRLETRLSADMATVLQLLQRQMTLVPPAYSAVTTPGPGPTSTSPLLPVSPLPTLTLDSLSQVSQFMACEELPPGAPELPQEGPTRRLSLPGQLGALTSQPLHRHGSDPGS
row,Structure (SMILES),"hERG current change (%, negative = inhibition) at 10uM [%]"
1,Cn1cc(C(=O)OCC(=O)N2CCCC2)c2ccccc21,2.96
2,COc1ccc(C(=O)Nc2ccc(Oc3nc(C)nc4sc(-c5ccccc5)cc34)cc2)cc1OC,10.7
3,CC(=O)c1ccc(OCC(=O)N(C)CC(=O)Nc2ccc(N3CCOCC3)cc2)cc1,9.61
4,COCc1cc(C)nc(SCC(=O)Nc2cccc(C)c2)c1C#N,14.2
5,CCN(CC(=O)Nc1cccc(S(=O)(=O)N2CCOCC2)c1)Cc1ccccc1,-4.27
6,COc1ccc(-c2cc(=[NH+]c3cccc(C(=O)O)c3)c3cc(C)ccc3o2)cc1.[O-][Cl+3]([O-])([O-])[O-],-0.536
7,CCOC(=O)CC(NC(=O)c1cc2cccc(OC)c2oc1=O)c1cccc([N+](=O)[O-])c1 (stereo not drawn),-23
8,N#CCCN(CCC#N)C(=O)C1c2ccccc2Oc2ccccc21,14.4
9,COc1ccc(-c2cn3cccnc3n2)cc1NC(=O)C(C)Oc1ccccc1 (stereo not drawn),8.13
10,COc1ccccc1C1=NOC(Cn2c(=O)c3c(ncn3C)n(C)c2=O)C1 (stereo not drawn),8.13
11,O=C1CCc2cc(S(=O)(=O)Nc3cccc(F)c3)cc3c2N1CC3,-17.5
12,CC(C)Oc1cccc(-c2cc(C(=O)N3CCN(c4ncccn4)CC3)c3ccccc3n2)c1,-16.9
13,O=C(CCc1ccccc1)Nc1ccc(S(=O)(=O)N2CCCC2)cc1,4.69
14,Cc1cccc(C)c1NC(=O)CNCC(=O)N(C)C,21
15,CCc1cc2c(COC(=O)c3c(C)noc3C)cc(=O)oc2cc1O,32.8
16,Cn1cc(CN2CCCC(C(=O)Nc3ccc(-c4cccc(F)c4)cc3)C2)cn1 (stereo not drawn),-43.9
17,CCOC(=O)CSc1nnc(NC(=O)c2cccc([N+](=O)[O-])c2C)s1,7.4
18,COC(=O)CCS(=O)(=O)c1ccc(NC(C)=O)cc1,13.3
19,CCCOc1ccc(C2C(=O)N(C3CCCCCC3)CC(=O)N2Cc2ccco2)cc1OC (stereo not drawn),-36.7
20,CCOc1ccccc1N1CC(C(=O)Nc2cc(Cl)ccc2C)CC1=O (stereo not drawn),-8.64
21,CC1(C)CC(=O)N(Cc2ccccc2)C(=O)C1,5.15
22,Cc1ccc(C)c(OCCC(=O)Nc2cccc(S(=O)(=O)N3CCCC3)c2)c1,4.94
23,CCOc1ccc(Cl)cc1CNCCCSc1ncccn1,-37.3

row,Structure (SMILES),"hERG current change (%, negative = inhibition) at 10uM [%]"
1,COc1ccc(C(=O)n2nnc3ccccc32)cc1Br,9.24
2,CCCCCCCCNC(CO)(CO)CO,7.1
3,O=C(O)c1cc(S(=O)(=O)N2CCCC2)ccc1Br,5.36
4,COc1ccc(/C=C(\C#N)C(=O)Nc2ccc3[nH]c(=O)[nH]c3c2)cc1,6.81
5,CC1CCCN(C(C(=O)NC2CCCCC2)c2cc3c(cc2[N+](=O)[O-])OCO3)C1 (stereo not drawn),-9.77
6,Cc1nn(CCc2n[nH]c(=S)n2-c2cccc(Cl)c2)c(C)c1[N+](=O)[O-],22.4
7,COc1cccc(OCC(=O)Nc2c3c(nn2-c2ccccc2)CS(=O)(=O)C3)c1,-48.5
8,Cc1ccc(Cl)cc1NS(=O)(=O)c1ccc2c(c1)NC(=O)C(C)C(=O)N2 (stereo not drawn),8.89
9,CCCCC(Nc1ncnc2ccccc12)C(=O)O (stereo not drawn),9.93
10,Cc1onc(-c2ccccc2)c1C(=O)/C=C/N(C)C,7.42
11,COc1ccc(Cl)cc1C(=O)Nc1nc2ccc(S(C)(=O)=O)cc2s1,18.7
12,CCCS(=O)(=O)N1CCCC(C(=O)NCCCN2CCCC2=O)C1 (stereo not drawn),11.6
13,CCOC(=O)c1ccc(N2C(=O)C=C(N3CCOCC3)C2=O)cc1,14.5
14,CCS(=O)(=O)c1ccc(Sc2nncn2C)c([N+](=O)[O-])c1,1.59
15,CC(=O)Nc1ccc(C(=O)N2CC(=O)NC(=O)C2)cc1,4.71
16,CC(C)(C)OC(=O)N1CCCN(C(=O)Nc2ccc(OC(F)(F)F)cc2)CC1,-22.6
17,O=C(C(=O)N1CCOCC1)c1cn(CCCOc2ccccc2)c2ccccc12,-13.1
18,CC(C)Nc1nc2ccccc2c(=O)[nH]1,7.43
19,N#Cc1c(-c2ccccc2)nc(N2CCOCC2)[nH]c1=O,0.326
20,COCCNC(=O)c1ccc(CSCc2cccc(Cl)c2)o1,-7.69
21,COc1ccc(N(CC(=O)NCc2ccc(Cl)cc2)S(=O)(=O)c2c(C)nn(C)c2C)cc1,-41.4
22,Cc1cc([N+](=O)[O-])c(NC2CCCCC2)c([N+](=O)[O-])c1,3.72
